110 molecules from PubChem BioAssay AID651567 (National Center for Advancing Translational Sciences (NCATS), 2012) can be followed below.

Hit rate of the full screen: of about 1,200 compounds, about 10 (0.8%) were called active. Another 4% or so got no clear call; they are omitted. The call rests on the fitted dose curve; in most records, active means well fitted inhibition curve with a large enough effect; inconclusive means small, poorly fitted or top-dose-only effect; inactive means no such curve, though single readings can be large or run the other way. This is one part of the list.
On the % scale 0 is the no-effect control and ±100 the full control effect.

The nature of this experiment: qHTS Assay to Find Inhibitors of Chronic Active B-Cell Receptor Signaling: Hit Validation in OCI-Ly3 Assay. Conditions: OCI-Ly3 IkB-luciferase reporter, Chroma-Glo luminescence, 4 h; series mostly up to 46.1 µM; activity change, negative = inhibition: at the top concentration. The gist of the method:
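Readout is dual-colour luminescence: IkB-alpha-luciferase fusion (green) against unfused luciferase (red), plus their ratio, scaled between basal cells and 10 uM MG-132. OCI-Ly3 cells, 0.5% FBS IMDM, compound with doxycycline (80ng/ml solution), 4 hrs at 37C; curves fitted and classed.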
Regarding `COc1cc(-c2noc(C)c2C#Cc2ccsc2)cc(OC)c1OC`, the “activity change, negative = inhibition” value is inactive: -5.39%.
For `O=C(N/N=C/c1ccc(Cl)cc1)c1sccc1OCc1ccc(F)cc1` the value was inactive: -7.2%; for `COc1ccccc1C(=O)Nc1ccccc1SC(=O)c1ccccc1OC`, inactive: -25.4%; for `CCOC(=O)c1ccc(NC(=O)Nc2ccon2)cc1`, inactive: -4.1%.
For `COc1ccc(NC(=S)N=Nc2c(O)[nH]c3ccccc23)cc1` the value was inactive: -8.1%; for `COCCNC(=S)N/N=C(\C)c1ccccc1F`, inactive: -0.283%; for `CCC1CCCCN1C(=S)NC(=O)c1cccs1` (stereo not given), inactive: -0.476%.
For `COc1cc2c(cc1OC)-c1cc(NC3CCCCCC3)nc(=O)n1CC2` the value was inactive: -2.73%; for `COc1ccc(/C=N/NC(=O)CCn2cnc(-c3ccccc3)c2-c2ccccc2)cc1`, inactive: -18.7%; for `COc1ccc2c(c1)C(C)=CC(C)(C)N2S(=O)(=O)c1ccc(C)cc1`, inactive: -3.93%.
With `Cc1ccc2c(c1)C(=O)C(=O)N2CCOc1ccccc1`, the “activity change, negative = inhibition” value is inactive: -2.23%.
For `CCn1c2ccccc2c2cc(NC(=O)c3cc(OC)c(OC)c(OC)c3)ccc21` the value was inactive: -9.48%; for `CCN(C(=O)c1cnc(NC(C)C)cc1C(F)(F)F)c1ccc(Cl)cc1Cl`, inactive: -1.47%.
For `COc1ccc(COC(=O)c2cc([N+](=O)[O-])ccc2N2CCOCC2)cc1F` the value was inactive: -2.2%; for `CC1(CCc2ccc(O)cc2)NC(=O)NC1=O` (stereo not given), inactive: -0.179%; for `O=c1cc(-c2ccc(F)cc2)[nH][nH]1`, inactive: 0.0278%.
For `CCN(CC)S(=O)(=O)c1ccc(N2CCOCC2)c(NC(=O)c2[nH]c(C)c(C(C)=O)c2C)c1` the value was inactive: -12.8%; for `CCN(c1cccc(C)c1)S(=O)(=O)c1ccc(-c2cc(C)no2)s1`, inactive: -2.75%; for `COc1ccc(OC)c(C2C3=C(COC3=O)Nc3cc4c(cc32)OCO4)c1` (stereo not given), inactive: -1.69%.
For the molecule `Oc1ccc(NCc2ccccc2OCc2ccccc2)cc1`, the “activity change, negative = inhibition” value was inactive: -13.7%.
With `COc1ccc(/C=N/NC(=O)C(=O)N2CCCCCC2)cc1[N+](=O)[O-]`, the “activity change, negative = inhibition” value is inactive: -0.482%.
For `COc1cc(OC)cc(C(=O)Oc2c(CN3CCOCC3)cc(Cl)c3cccnc23)c1` the value was inactive: -0.47%; for `CNC(=S)N/N=C(\C)c1ccc(Cl)s1`, inactive: -3.11%; for `CC(=O)c1ccc2c(c1)CC(C)C(=O)N2C` (stereo not given), inactive: -0.581%.
For `O=[N+]([O-])c1cc(Cl)c2cccnc2c1O` the value was inactive: -1.59%; for `Cc1nnc2ccc(-c3ccc(NS(=O)(=O)c4ccccc4[N+](=O)[O-])cc3)nn12`, inactive: -2.67%.
With `CCOc1cccc(/C=C/c2ccc3cccc(O)c3n2)c1OC`, the “activity change, negative = inhibition” value was inactive: -19.1%.
For the molecule `COc1ccc2cc(C3c4cc(OC)c(OC)cc4CCN3C(=O)c3ccco3)c(=O)[nH]c2c1` (stereo not given), the “activity change, negative = inhibition” value was inactive: -1.32%.
For `COc1ccc(-c2nn(-c3ccccc3)cc2/C=N/NC(N)=S)cc1OC` the value was inactive: -9.92%; for `O=C1CC(c2ccccc2)Cc2nc3ncnn3cc21` (stereo not given), inactive: 0.367%; for `CNc1nc(-c2ccc(OC)cc2)c(-c2ccc(OC)cc2)s1`, inactive: -0.769%.
For `O=C(Oc1c(CN2CCOCC2)cc(Cl)c2cccnc12)c1cccs1` the value was inactive: -0.194%.
Turning to `O=[N+]([O-])c1cccnc1SCc1c(F)cccc1Cl`, the “activity change, negative = inhibition” value is inactive: -1.19%.
For `Cc1ccc(NC(=O)C(=O)NCC2CCCN2S(=O)(=O)c2cccs2)cc1C` (stereo not given) the value was inactive: -0.0507%; for `Cc1ccc(NC(=S)NC(=O)c2ccc(F)cc2)cc1S(=O)(=O)Nc1cccc(Cl)c1`, inactive: -2.28%.
Consider `CNC(=O)[C@H]1O[C@@H](n2cnc3c(NCc4cccc(I)c4)nc(Cl)nc32)[C@H](O)[C@@H]1O`, for which the “activity change, negative = inhibition” value was inactive: -0.243%.
For `C=CCn1c(SCC(=O)NCCO)nc2sc(C)c(C)c2c1=O` the value was inactive: -0.853%.
Turning to `COc1ccccc1-c1nnc2sc(-c3ccc(N(C)C)cc3)nn12`, the “activity change, negative = inhibition” value was inactive: -1.68%.
For `COc1ccc(NC(=O)/C(C#N)=C\c2cc(C)n(-c3ccc4c(c3)OCO4)c2C)cc1` the value was inactive: -4.51%; for `O=C(c1ccc(Cl)cc1)c1cc([N+](=O)[O-])ccc1N1CCOCC1`, inactive: -4.74%; for `CC(/C=N/NC(=O)c1cc(-c2ccccc2)nc2ccccc12)=C\c1ccco1`, inactive: -1.08%.
Consider `C=CCn1c(SCc2c(C)noc2C)nc2ccccc2c1=O`, for which the “activity change, negative = inhibition” value is inactive: -6.69%.
For `CCCC(=O)Nc1ccc(C(=O)N/N=C/c2cccnc2)cc1` the value was inactive: -0.0916%; for `Cc1ccc2nc(NC(=O)c3ccccn3)sc2c1`, inactive: 14.4%; for `Cc1ccnc(NC(=O)c2cccc(S(=O)(=O)Nc3ccc(C)cc3C)c2)c1`, inactive: -2.93%.
Consider `CCNC(=S)N/N=C(\C)c1ccc(Cl)s1`, for which the “activity change, negative = inhibition” value is inactive: -2.08%.
`CC1CC(C)CN(S(=O)(=O)c2ccc(NC(=O)c3ccc(=O)[nH]c3)cc2)C1` (stereo not given): the “activity change, negative = inhibition” value is inactive: -2.1%.
For `Cc1cc(C)c(S(=O)(=O)Nc2ccc3c4c(cccc24)CC3)c(C)c1` the value was inactive: -5.19%; for `CCOC(=O)C1(C)C(C(=O)OC)=C(c2ccc(OC)cc2)c2ccccc2N1C(=O)OC` (stereo not given), inactive: -2.24%; for `CC(=NNC(=O)c1cc(C)nc2ccccc12)c1ccc(N2CCOCC2)cc1`, inactive: 0.0416%.
Turning to `O=Cc1ccc(O)c2ncccc12`, the “activity change, negative = inhibition” value is inactive: -0.452%.
As to `C/C(Cl)=C\Cn1c(O)c(N=NC(N)=S)c2cc(Br)ccc21`, the “activity change, negative = inhibition” value was inactive: 64.8%.
For `COc1ccc(/C=N/NC(=O)c2ccc3c(c2)NC(=O)C(C)(C)O3)cc1OC` the value was inactive: -1.1%.
For `COc1ccc(S(=O)(=O)N2CCCCC2)cc1NS(=O)(=O)c1cc(Cl)ccc1Cl` the value was inactive: -0.0248%.
For `COc1cc(/C=N/NC(=O)C2C3CCCCC32C)cc(Br)c1O` (stereo not given) the value was inactive: -1.39%.
For the molecule `COc1ccc(OC)c(Nc2c3c(nc4ccccc24)CCC3)c1`, the “activity change, negative = inhibition” value was inactive: -0.775%.
For `COC(=O)c1cn(C(=O)c2ccc(OC)cc2)c2ccccc12` the value was inactive: -5.28%.
For `O=C(/C=C/c1cccc(Cl)c1)c1nc2ccccc2[nH]1` the value was inactive: 0.678%; for `CCn1c(SCC(=O)c2ccc(Cl)cc2)nnc1C(C)C`, inactive: -1.19%; for `COc1ccc(S(=O)(=O)Nc2ccc3c(c2)n(C)c(=O)n3C)cc1F`, inactive: -0.825%.
For `COc1cc(C#Cc2ccc3cc(CCCO)oc(=O)c3c2)cc(OC)c1` the value was inactive: -11.1%; for `Cc1ccc(C(=O)c2cc([N+](=O)[O-])ccc2N2CCCCC2)c(C)c1`, inactive: -5.12%.
Take `CC(=O)c1cc(C#N)c(SCCC(C)C)nc1C`: the “activity change, negative = inhibition” value is inactive: -0.523%.
For `CCCSc1nc(=O)n2cccc(C)c2n1` the value was inactive: 0.711%.
For `N#CC1=C2SCC(O)(c3ccccc3)N2C(=O)CC1c1ccccc1` (stereo not given) the value was inactive: -7.68%.
Regarding `COc1ccc(NC(=O)C2CCCN2S(=O)(=O)c2cccc3cccnc23)cc1OC` (stereo not given), the “activity change, negative = inhibition” value was inactive: -0.277%.
Take `CCOC(=O)C(C)/C(C)=N/NC(N)=S` (stereo not given): the “activity change, negative = inhibition” value was inactive: -1.09%.
As to `CCN(C(=O)COC(=O)c1cc([N+](=O)[O-])ccc1N1CCOCC1)c1ccccc1`, the “activity change, negative = inhibition” value is inactive: -0.198%.
For `CNC(=O)[C@H]1O[C@@H](n2cnc3c(NCc4cccc(I)c4)ncnc32)[C@H](O)[C@@H]1O` the value was inactive: -0.832%.
For `C[C@]12CC[C@H]3C(=CCc4cc(O)ccc43)[C@@H]1CCC2=O` the value was inactive: -1.6%; for `CCOCCOC(=O)c1[nH]c2c(c1C)C(=O)CC(c1ccccc1)C2` (stereo not given), inactive: -0.56%; for `COc1cc(/C=N/N(C)c2ccccc2)ccc1O`, inactive: 0.432%.
For `CCOc1ccc2c(c1)OC(c1ccc(OC)cc1)(C(F)(F)F)NC2=O` (stereo not given) the value was inactive: -4.69%.
For the molecule `CC1=NN(C(N)=S)C(=O)C1N=Nc1cccc(C)c1` (stereo not given), the “activity change, negative = inhibition” value is inactive: 2.43%.
For `CCOc1cc(/C=N/O)ccc1OCc1ccccc1F` the value was inactive: -0.187%; for `COc1ccc(C2=NOC(C(=O)NCc3ccc(F)cc3)C2)cc1` (stereo not given), inactive: -0.587%.
Turning to `COc1ccc(/C=C/C(=O)c2cc(F)ccc2OC(=O)c2ccccc2C)cc1OC`, the “activity change, negative = inhibition” value was inactive: -6.24%.
For `CCOC(=O)N1CCN(S(=O)(=O)c2ccc(C(=O)Nc3ccc(F)cc3F)cc2)CC1` the value was inactive: -0.791%; for `COc1ccc(-c2cnnn2-c2ccc(N)cc2)cc1OC`, inactive: -1.14%.
For `COc1cc(OC)c(OC)cc1/C=C/C(=O)c1ccc(NS(=O)(=O)c2ccc(C)cc2)cc1` the value was inactive: -17.4%; for `O=C(Oc1ccc(Cl)c2cccnc12)C12CC3CC(CC(C3)C1)C2`, inactive: -2.91%.
For `COc1ccc(C=O)cc1OS(=O)(=O)c1ccc(NC(C)=O)cc1` the value was inactive: -0.831%; for `O=C(Nc1nc2c(F)cc(F)cc2s1)c1ccccn1`, inactive: 15.7%; for `CC(O)c1cccc(-c2ccc(CN3C[C@]4(CO)O[C@@H](CO)C[C@@H]4S3(=O)=O)cc2)c1` (stereo not given in full), inactive: -0.341%.
Regarding `CCOc1ccc(S(=O)(=O)N2c3ccccc3CC2C)cc1` (stereo not given), the “activity change, negative = inhibition” value was inactive: -2.53%.
For `COc1ccc(/C(C)=N/Nc2ccc(C(=O)O)cc2)cc1OC` the value was inactive: 18.1%; for `CCc1ccc(S(=O)(=O)Nc2ccc(-c3ccc4nnc(C)n4n3)cc2)s1`, inactive: -3%.
For `CCOc1ccc(C2=Nn3c(nnc3-c3ccccc3OC)SC2)cc1` the value was inactive: -7.45%; for `CCOC(=O)C1CCN(C(=O)CSc2cc(=O)n(CC)c3ccccc23)CC1`, inactive: -4.1%.
For `Oc1ccc(Nc2nc(-c3cccnc3)cs2)cc1` the value was inactive: -4.58%.
For the molecule `COc1ccccc1N1CCN(Cc2ccc(O)c3ncccc23)CC1`, the “activity change, negative = inhibition” value is inactive: -3.1%.
For `CN1CCc2cccc3c2[C@H]1Cc1ccc(O)c(O)c1-3` the value was inactive: -15.5%.
For `COc1ccccc1-c1noc(CSc2nc(N)cc(=O)[nH]2)n1` the value was inactive: 0.632%; for `Cc1nc2ccc(S(=O)(=O)Nc3cccc(-c4nc5cccnc5s4)c3)cc2s1`, inactive: -0.852%.
For `COc1cc(C(=O)N/N=C/c2ccsc2C)cc(OC)c1OC` the value was inactive: -1.4%.
As to `O=C1Nc2ccc(Cl)cc2/C1=C/C1CC=CCC1` (stereo not given), the “activity change, negative = inhibition” value is inactive: -1.9%.
For `COc1cc(/C=N/NC(=S)Nc2cccnc2)cc(OC)c1OC` the value was inactive: -2.43%; for `Cc1c(CCC(=O)N[C@@H](C)C(=O)O)c(=O)oc2cc3oc4c(c3cc12)CCCC4`, inactive: -0.942%; for `COc1ccc(N2C(=O)CS/C2=N\C(=S)Nc2ccccc2)cc1`, inactive: -0.277%.
Take `C=CCn1c(O)c(N=NC(=S)Nc2ccccc2C)c2cc(S(=O)(=O)N3CCOCC3)ccc21`: the “activity change, negative = inhibition” value was inactive: -12.1%.
For `COc1cc(C(=O)Nc2nc(C)c(Cc3ccc4c(c3)OCO4)s2)cc(OC)c1OC` the value was inactive: -6.45%; for `CCc1ccc(/C=N/NC(=O)c2cc(-c3ccncc3)nc3ccccc23)s1`, inactive: -7.67%; for `COc1ccc(CNC(=O)COc2ccc(C(=O)c3ccc(F)cc3)cc2)cc1`, inactive: -2.85%.
For `C=CCNC(=S)N/N=C/c1ccc(C)s1` the value was inactive: -0.257%; for `Cc1ccc(/C=N/NC(=O)c2n[nH]c3c2CCCC3)cc1`, inactive: -1.46%.
With `COc1ccc(OC)c(C2CC(=O)Nc3n[nH]c(-c4ccccc4)c32)c1` (stereo not given), the “activity change, negative = inhibition” value was inactive: -1.08%.
For `COc1ccc2c(c1)C(C)=CC(C)(C)N2S(=O)(=O)c1ccc(NC(C)=O)cc1` the value was inactive: -3.09%; for `S=C(Nc1ccccc1)Nc1nccs1`, inactive: 76.3%; for `CCc1c(C)c(C#N)c2nc3ccccc3n2c1Cl`, inactive: -27.7%.
For `COc1ccc(/C=C(\C#N)c2c[nH]c3ccccc23)cc1` the value was inactive: -1.65%.
